Data: PubChem BioAssay AID504332 (National Center for Advancing Translational Sciences (NCATS), 2011)
Screen size: about 350,000 compounds; about 31,000 (8.9%) were called active. Inconclusive means that the source gave no clear call. Such entries were picked first, then a sample of the others. The call rests on the fitted dose curve; in most records, active means well fitted inhibition curve with a large enough effect; inconclusive means small, poorly fitted or top-dose-only effect; inactive means no such curve, though single readings can be large or run the other way. Potencies beside an inconclusive call are fits to weak or partial responses and may not hold up. Where a structure was tested more than once in an assay, its records may differ in their call.

The compounds below were run against Histone-lysine N-methyltransferase EHMT2 (Homo sapiens) (UniProt Q96KQ7) (assay: qHTS Assay for Inhibitors of Histone Lysine Methyltransferase G9a). Details: G9a H3K9 monomethylation, AlphaScreen, 2 h; activity, negative = inhibition: at 59 µM (top of the series) unless noted.
Outline: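 AlphaScreen detection with an anti-monomethyl H3K9 antibody quantified product after a 2 h room-temperature reaction containing 500 nM biotinylated H3K9 peptide, 20 µM SAM and 20 nM enzyme, which had been preincubated 15 min with compound.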
Further: nearly all actives have a fitted effect of over 75% in size.
On the % scale 0 is the no-effect control and ±100 the full control effect; potency means the concentration at half of the fitted maximal effect; tags describe the fitted curve by direction and shape.

Chain of UniProt Q96KQ7 (Q96KQ7 whole entry, looked up): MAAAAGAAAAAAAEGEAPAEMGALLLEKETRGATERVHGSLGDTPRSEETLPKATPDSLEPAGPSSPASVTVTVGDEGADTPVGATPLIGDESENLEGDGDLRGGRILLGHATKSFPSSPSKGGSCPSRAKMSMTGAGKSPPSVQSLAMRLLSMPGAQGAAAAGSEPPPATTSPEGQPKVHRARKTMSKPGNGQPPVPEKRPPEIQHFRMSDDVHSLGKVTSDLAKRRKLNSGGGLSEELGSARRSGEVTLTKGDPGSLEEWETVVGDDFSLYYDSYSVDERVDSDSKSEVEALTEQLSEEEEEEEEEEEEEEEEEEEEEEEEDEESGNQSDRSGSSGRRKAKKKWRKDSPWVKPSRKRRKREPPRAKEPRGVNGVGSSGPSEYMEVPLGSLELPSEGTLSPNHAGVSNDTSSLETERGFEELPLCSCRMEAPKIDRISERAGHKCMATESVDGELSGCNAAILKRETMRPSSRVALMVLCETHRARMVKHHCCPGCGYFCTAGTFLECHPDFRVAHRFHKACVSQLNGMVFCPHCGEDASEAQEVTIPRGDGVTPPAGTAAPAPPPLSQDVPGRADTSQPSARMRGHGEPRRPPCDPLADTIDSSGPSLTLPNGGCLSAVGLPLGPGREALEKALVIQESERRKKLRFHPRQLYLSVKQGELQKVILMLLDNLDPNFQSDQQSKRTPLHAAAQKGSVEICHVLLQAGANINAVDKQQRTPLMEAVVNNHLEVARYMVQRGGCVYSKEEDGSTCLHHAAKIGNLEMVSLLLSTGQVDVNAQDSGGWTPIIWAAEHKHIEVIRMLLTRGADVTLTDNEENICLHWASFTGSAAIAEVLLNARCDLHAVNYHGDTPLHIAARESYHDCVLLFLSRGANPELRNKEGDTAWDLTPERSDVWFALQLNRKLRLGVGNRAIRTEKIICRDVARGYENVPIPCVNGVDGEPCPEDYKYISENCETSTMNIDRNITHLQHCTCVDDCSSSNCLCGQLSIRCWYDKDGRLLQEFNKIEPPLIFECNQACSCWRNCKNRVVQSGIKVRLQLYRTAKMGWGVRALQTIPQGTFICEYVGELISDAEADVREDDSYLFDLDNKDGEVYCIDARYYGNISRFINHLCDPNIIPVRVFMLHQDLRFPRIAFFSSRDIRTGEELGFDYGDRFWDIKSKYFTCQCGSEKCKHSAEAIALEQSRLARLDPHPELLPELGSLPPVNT

| Compound | Potency | activity, negative = inhibition |
| --- | --- | --- |
| COc1cc(/C=N/NC(=O)C2C3CCCCC32C)cc(Br)c1O (stereo unspecified) | inconclusive: 25.1 µM [inhibitor, partial curve, poor fit] |  |
| COc1cc(/C=C2\CC/C(=C\c3cc(OC)c(O)c(OC)c3)C2=O)cc(OC)c1O | active: 2.51 µM |  |
| CCn1c(SCC(N)=O)nnc1-c1cc2c(C)nn(-c3ccccc3)c2s1 | active: 44.7 µM |  |
| CS(=O)(=O)c1ccc(C(=O)Nc2ccc(S(=O)(=O)N3CCCCC3)cc2)cc1 | inconclusive: 56.2 µM [inhibitor, partial curve, poor fit] |  |
| CC(=O)N(CCCCl)C(C#N)c1ccccc1 (stereo unspecified) | inconclusive: 56.2 µM [inhibitor, partial curve, poor fit] |  |
| CC(C)CN(C(=O)COC(=O)CCC(=O)c1ccc(F)cc1)c1c(N)n(Cc2ccccc2)c(=O)[nH]c1=O |  | inactive: 8.74% [at 0.501 µM] |
| COc1ccc(C(=O)CCN2CCN(c3ccccc3OC)CC2)cc1 | active: 50.1 µM |  |
| COc1ccc(OC(C)C(=O)Nc2cccc([N+](=O)[O-])c2)cc1 (stereo unspecified) | inconclusive: 89.1 µM [inhibitor, single point] |  |
| CCOc1ccccc1NC(=O)c1ccc2c(Cl)c3c(nc2c1)CCC3 |  | inactive: -11.9% |
| COc1cc(OC)cc(-c2n[nH]c(=S)n2-c2cc(OC)ccc2OC)c1 | inconclusive: 1.41 µM [inhibitor, full curve, poor fit] |  |
| CN1/C(=C/C(=S)NC(=O)C2(C)CC2(Cl)Cl)C(C)(C)c2ccccc21 (stereo unspecified) | inconclusive: 20 µM [inhibitor, full curve, poor fit] |  |
| COc1cccc(C2=CC(=O)C[C@H](c3ccc(OC)c(OC)c3)C2)c1 |  | inactive: -2.09% [at 2.33 µM] |
| COc1ccc(-c2nn3c(=O)cc(CN4CCN(C(=O)c5ccc(OC)c(OC)c5)CC4)nc3s2)cc1 |  | inactive: 12.8% |
| O=C(CCN1C(=O)/C(=C/c2ccc(Cl)cc2)SC1=S)Nc1ccc(C(=O)O)cc1 | inconclusive: 56.2 µM [inhibitor, partial curve, poor fit] |  |
| Nc1ccc(O)c2c(=O)cc(-c3ccccc3Cl)oc12 | active: 15.8 µM |  |
| COc1cccc(CNC(=O)COc2cc(=O)n(C)c3ccccc23)c1 |  | inactive: -4.61% |
| CCn1c(-c2cc(-c3ccccc3)sc2N)n[nH]c1=S | active: 1.12 µM |  |
| N#Cc1cccc(NC(=O)N2CC[C@@]3(CCCN(C(=O)c4cnccn4)C3)C2)c1 |  | inactive: 5.53% [at 12.7 µM] |

| Compound | Potency | activity, negative = inhibition |
| --- | --- | --- |
| Cc1cc(C)cc(-n2c(C)cc(C(=S)N3CCOCC3)c2C)c1 | active: 4.47 µM |  |
| C=CCc1cccc(/C=N/NC(=O)C(=O)Nc2ccc(C)cc2)c1O | inconclusive: 17.8 µM [inhibitor, partial curve, poor fit] |  |
| CCn1cc(CN2CCCC(C(=O)Nc3cccc(-c4cc5ccccc5[nH]4)c3)C2)cn1 (stereo unspecified) | inconclusive: 79.4 µM [inhibitor, single point] |  |
| CCCOc1cc(C)nc(-c2ccccc2O)n1 |  | inactive: 278% [at 102 µM] |
| C1=C(c2ccccc2)CCN(c2ncnc3nc[nH]c23)C1 | inconclusive: 31.6 µM [inhibitor, single point] |  |
| NC(=O)c1oc2ccc(Cl)cc2c1N | inconclusive: 22.4 µM [inhibitor, partial curve, poor fit] |  |
| COc1ccccc1NC(=O)CN1CCN(c2ccc(Cl)cc2)CC1 | inconclusive: 89.1 µM [inhibitor, single point] |  |
| Cc1ccc(C)c(NC(=S)NCc2ccc3[nH]c4c(c3c2)CCCC4)c1 | active: 39.8 µM |  |
| COCc1c(C(=O)N/N=C/c2c[nH]c3ccccc23)nnn1-c1nonc1N |  | inactive: -2.38% [at 102 µM] |
| CCOc1cc([N+](=O)[O-])cc(/C=C2/NC(=O)N(Cc3ccccc3F)C2=O)c1O | active: 22.4 µM |  |
| CCCN(CC(=O)Nc1ccccc1C)C(=O)c1ccc(NC2CC2)c([N+](=O)[O-])c1 |  | inactive: -25.6% [at 102 µM] |
| NS(=O)(=O)c1cccc(NC(=O)CSc2n[nH]c(-c3cccs3)n2)c1 |  | inconclusive: -92.7% [inhibitor] [at 12.7 µM] |
| CCNc1nc(NCC)n2c(SCC(=O)c3ccccc3Cl)nnc2n1 | inconclusive: 50.1 µM [inhibitor, partial curve, poor fit] |  |
| CC(=O)c1ccc(-n2c(CCC(=O)O)ccc2-c2ccc(Br)cc2)cc1 | active: 39.8 µM |  |
| O=C(Nc1cccc(C(F)(F)F)c1)c1cc(CN2CCOCC2)on1 |  | inactive: 9.31% |
| Cc1cc(C)n2nc(SCC(=O)Nc3c(C)n(C)n(-c4ccccc4)c3=O)nc2n1 | active: 44.7 µM |  |
| CCCCCOc1ccc(C(=O)CCC(=O)N2CCCC2)cc1 |  | inactive: 17% [at 102 µM] |
| COc1ccc(S(=O)(=O)Nc2ccc(-c3cn4c(C)csc4n3)cc2)cc1 | inconclusive: 39.8 µM [inhibitor, single point] |  |
